In paper PMC9371921, “Strand annealing and motor driven activities of SMARCAL1 and ZRANB3 are stimulated by RAD51 and the paralog complex” (Nucleic Acids Research, 2022):
These are yes or no findings as the source states them, for the method shown. Some binding calls cover weakened binding; strength is not graded here. For some of these results: Where a sequence is shown, tags or fusion partners need not be part of it. Values belong to the binder of their own block, whether it stands above or below them.

By UniProt entry, the sequences of proteins in these tests, tags left out.
UniProt Q06609: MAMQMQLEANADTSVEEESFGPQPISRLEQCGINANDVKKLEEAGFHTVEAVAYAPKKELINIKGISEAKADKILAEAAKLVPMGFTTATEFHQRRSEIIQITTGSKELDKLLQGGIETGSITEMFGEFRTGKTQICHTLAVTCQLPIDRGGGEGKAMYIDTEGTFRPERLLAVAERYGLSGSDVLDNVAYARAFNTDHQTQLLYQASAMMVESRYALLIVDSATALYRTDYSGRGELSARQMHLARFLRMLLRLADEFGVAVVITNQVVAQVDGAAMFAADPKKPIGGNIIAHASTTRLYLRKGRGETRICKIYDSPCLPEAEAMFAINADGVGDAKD

Legend:
[1] = molecular target: MBP-RAD51 (human) (UniProt Q06609); assay: pull-down; ZRANB3 F→A variants and RAD51 (Supplementary Figure S4); the methods tell two set-ups (MBP-RAD51 on amylose resin with purified FLAG-ZRANB3; FLAG-ZRANB3 variants from Sf9 soluble extract on anti-FLAG resin with purified RAD51) and the text does not tell which was used for which variant; 100 mM NaCl, 1 h at 4°C; both purified
[2] = molecular target: T1, RAD51 paralog complex RAD51B-RAD51C-RAD51D-XRCC2 (BCDX2) (human) (UniProt O15315+O43502+O75771+O43543); assay: pull-down; anti-His antibody on Dynabeads Protein G, bound to purified BCDX2 (1 μg, bait); purified SMARCAL1 or ZRANB3 (1 μg, prey) in IP buffer (25 mM Tris-HCl pH 7.5, 100 mM NaCl, 3 mM EDTA, 0.5 mM DTT, BSA), 1 h at 4°C; silver staining or Western blot with anti-FLAG and anti-His; both purified
T1 sequence 1: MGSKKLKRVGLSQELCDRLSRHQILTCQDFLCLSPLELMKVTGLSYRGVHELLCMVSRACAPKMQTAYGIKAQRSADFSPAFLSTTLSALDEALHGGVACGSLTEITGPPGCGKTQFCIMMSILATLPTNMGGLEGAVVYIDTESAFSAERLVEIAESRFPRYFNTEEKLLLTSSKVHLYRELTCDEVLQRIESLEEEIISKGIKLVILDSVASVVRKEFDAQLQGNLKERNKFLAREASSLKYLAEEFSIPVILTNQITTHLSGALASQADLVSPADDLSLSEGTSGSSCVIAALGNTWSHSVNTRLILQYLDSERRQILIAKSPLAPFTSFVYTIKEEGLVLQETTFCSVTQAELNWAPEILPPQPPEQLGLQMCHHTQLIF
T1 sequence 2: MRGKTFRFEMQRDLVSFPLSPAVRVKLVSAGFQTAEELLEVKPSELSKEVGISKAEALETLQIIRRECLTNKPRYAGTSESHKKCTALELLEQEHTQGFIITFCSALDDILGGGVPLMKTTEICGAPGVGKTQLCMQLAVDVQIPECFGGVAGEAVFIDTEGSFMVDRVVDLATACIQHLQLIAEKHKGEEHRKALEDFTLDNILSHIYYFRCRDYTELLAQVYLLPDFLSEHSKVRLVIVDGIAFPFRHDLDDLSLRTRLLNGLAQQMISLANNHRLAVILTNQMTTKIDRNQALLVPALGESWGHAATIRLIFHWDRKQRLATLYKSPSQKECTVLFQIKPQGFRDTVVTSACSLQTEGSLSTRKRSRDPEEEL
T1 sequence 3: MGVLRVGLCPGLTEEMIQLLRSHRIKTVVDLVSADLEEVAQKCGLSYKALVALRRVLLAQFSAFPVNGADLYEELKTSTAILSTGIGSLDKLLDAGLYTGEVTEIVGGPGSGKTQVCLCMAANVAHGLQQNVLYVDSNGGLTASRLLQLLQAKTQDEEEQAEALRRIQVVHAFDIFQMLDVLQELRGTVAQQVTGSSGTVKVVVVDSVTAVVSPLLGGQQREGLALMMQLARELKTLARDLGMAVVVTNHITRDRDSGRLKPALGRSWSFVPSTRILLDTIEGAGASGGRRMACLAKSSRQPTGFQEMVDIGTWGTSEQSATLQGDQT
T1 sequence 4: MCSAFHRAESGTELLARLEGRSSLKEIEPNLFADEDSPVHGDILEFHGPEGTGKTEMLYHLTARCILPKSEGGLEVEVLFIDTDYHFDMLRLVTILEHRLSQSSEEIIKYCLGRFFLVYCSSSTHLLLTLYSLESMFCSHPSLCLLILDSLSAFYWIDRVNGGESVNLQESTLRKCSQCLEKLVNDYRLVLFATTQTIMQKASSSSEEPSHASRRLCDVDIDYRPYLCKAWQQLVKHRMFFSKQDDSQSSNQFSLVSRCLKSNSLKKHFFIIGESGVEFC

[3] = molecular target: MBP-RAD51 (human) (UniProt Q06609); assay: pull-down; MBP-RAD51 (bait) from bacterial soluble extract bound to amylose resin and washed; purified FLAG-SMARCAL1, FLAG-ZRANB3 or FLAG-BCDX2 (1 μg, prey) in 150 μl IP buffer (25 mM Tris-HCl pH 7.5, 100 mM NaCl, 3 mM EDTA, 0.5 mM DTT, BSA, 10% glycerol), 1 h at 4°C; eluted with maltose; Western blot with anti-MBP and anti-FLAG; both purified
[4] = molecular target: T2, FLAG-SMARCAL1 (human), Q9NZC9; assay: condition: 2 μl (50 nM) protein solution into 18 μl buffer; mass photometry; 2 μl (50 nM) protein solution added into 18 μl protein elution buffer; movie recorded for 1 min; Refeyn 2MP mass photometer, NativeMark size marker; both purified; conditions: remark: other sources report otherwise
T2 chain: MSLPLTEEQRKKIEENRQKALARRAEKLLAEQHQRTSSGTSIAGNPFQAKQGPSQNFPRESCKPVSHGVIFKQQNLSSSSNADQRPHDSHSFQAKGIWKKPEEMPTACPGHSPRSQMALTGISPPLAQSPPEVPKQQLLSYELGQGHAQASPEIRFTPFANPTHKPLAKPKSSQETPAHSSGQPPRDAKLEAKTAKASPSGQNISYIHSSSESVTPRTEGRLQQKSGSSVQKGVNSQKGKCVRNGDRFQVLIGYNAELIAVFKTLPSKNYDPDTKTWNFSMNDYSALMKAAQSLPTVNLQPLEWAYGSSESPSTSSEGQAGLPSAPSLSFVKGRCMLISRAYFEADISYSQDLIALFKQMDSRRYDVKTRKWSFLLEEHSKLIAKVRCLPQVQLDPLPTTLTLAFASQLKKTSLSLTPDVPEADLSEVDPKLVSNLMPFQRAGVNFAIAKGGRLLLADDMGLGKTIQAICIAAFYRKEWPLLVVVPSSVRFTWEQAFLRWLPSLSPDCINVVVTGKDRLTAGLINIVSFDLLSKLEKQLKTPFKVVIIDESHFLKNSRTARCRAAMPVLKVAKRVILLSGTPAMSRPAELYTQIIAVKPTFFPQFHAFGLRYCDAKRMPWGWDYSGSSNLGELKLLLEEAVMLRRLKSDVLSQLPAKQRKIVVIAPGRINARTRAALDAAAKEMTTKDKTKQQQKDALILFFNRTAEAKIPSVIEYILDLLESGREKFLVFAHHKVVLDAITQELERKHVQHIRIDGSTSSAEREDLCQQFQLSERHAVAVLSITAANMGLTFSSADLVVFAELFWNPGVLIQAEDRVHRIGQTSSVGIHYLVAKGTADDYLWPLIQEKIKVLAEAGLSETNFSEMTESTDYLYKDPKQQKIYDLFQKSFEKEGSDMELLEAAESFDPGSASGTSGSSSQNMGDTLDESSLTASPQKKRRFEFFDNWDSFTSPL

- binding [1]: no binding
B1: ZRANB3 F736A (enzyme, UniProt Q5FWF4 1-1079)
chain: MPRVHNIKKSLTPHISCVTNESDNLLDFLPDRLRAKLLPFQKDGIIFALKRNGRCMVADEMGLGKTIQAIGITYFYKEEWPLLIVVPSSLRYPWTEEIEKWIPELSPEEINVIQNKTDVRRMSTSKVTVLGYGLLTADAKTLIDALNNQNFKVVIVDESHYMKSRNATRSRILLPIVQKARRAILLTGTPALGRPEELFMQIEALFPQKFGRWTDYAKRYCNAHIRYFGKRPQWDCRGASNLNELHQLLSDIMIRRLKTEVLTQLPPKVRQRIPFDLPSAAAKELNTSFEEWEKIMRTPNSGAMETVMGLITRMFKQTAIAKAGAVKDYIKMMLQNDSLKFLVFAHHLSMLQACTEAVIENKTRYIRIDGSVSSSERIHLVNQFQKDPDTRVAILSIQAAGQGLTFTAASHVVFAELYWDPGHIKQAEDRAHRIGQCSSVNIHYLIANGTLDTLMWGMLNRKAQVTGSTLNGRKEKIQAEEGDKEKWDFLQFAEAWTPNDSSEELRKEALFTHFEKEKQHDIRSFFVPQPKKRQLMTSCDESKRFREENTVVSSDPTKTAARDIIDYESDVEPETKRLKLAASEDHCSPSEETPSQSKQIRTPLVESVQEAKAQLTTPAFPVEGWQCSLCTYINNSELPYCEMCETPQGSAVMQIDSLNHIQDKNEKDDSQKDTSKKVQTISDCEKQALAQSEPGQLADSKEETPKIEKEDGLTSQPGNEQWKSSDTLPVYDTLMACASRNTDRIHIYTKDGKQMSCNFIPLDIKLDLWEDLPASFQLKQYRSLILRFVREWSSLTAMKQRIIRKSGQLFCSPILALEEITKQQTKQNCTKRYITKEDVAVASMDKVKNVGGHVRLITKESRPRDPFTKKLLEDGACVPFLNPYTVQADLTVKPSTSKGYLQAVDNEGNPLCLRCQQPTCQTKQACKANSWDSRFCSLKCQEEFWIRSNNSYLRAKVFETEHGVCQLCNVNAQELFLRLRDAPKSQRKNLLYATWTSKLPLEQLNEMIRNPGEGHFWQVDHIKPVYGGGGQCSLDNLQTLCTVCHKERTARQAKERSQVRRQSLASKHGSDITRFLVKK

- binding [2]: binds
- binding [3]: no binding (tested: 1 μg)
B2: SMARCAL1-F446A (enzyme, UniProt Q9NZC9 1-954)
chain: MSLPLTEEQRKKIEENRQKALARRAEKLLAEQHQRTSSGTSIAGNPFQAKQGPSQNFPRESCKPVSHGVIFKQQNLSSSSNADQRPHDSHSFQAKGIWKKPEEMPTACPGHSPRSQMALTGISPPLAQSPPEVPKQQLLSYELGQGHAQASPEIRFTPFANPTHKPLAKPKSSQETPAHSSGQPPRDAKLEAKTAKASPSGQNISYIHSSSESVTPRTEGRLQQKSGSSVQKGVNSQKGKCVRNGDRFQVLIGYNAELIAVFKTLPSKNYDPDTKTWNFSMNDYSALMKAAQSLPTVNLQPLEWAYGSSESPSTSSEGQAGLPSAPSLSFVKGRCMLISRAYFEADISYSQDLIALFKQMDSRRYDVKTRKWSFLLEEHSKLIAKVRCLPQVQLDPLPTTLTLAFASQLKKTSLSLTPDVPEADLSEVDPKLVSNLMPFQRAGVNAAIAKGGRLLLADDMGLGKTIQAICIAAFYRKEWPLLVVVPSSVRFTWEQAFLRWLPSLSPDCINVVVTGKDRLTAGLINIVSFDLLSKLEKQLKTPFKVVIIDESHFLKNSRTARCRAAMPVLKVAKRVILLSGTPAMSRPAELYTQIIAVKPTFFPQFHAFGLRYCDAKRMPWGWDYSGSSNLGELKLLLEEAVMLRRLKSDVLSQLPAKQRKIVVIAPGRINARTRAALDAAAKEMTTKDKTKQQQKDALILFFNRTAEAKIPSVIEYILDLLESGREKFLVFAHHKVVLDAITQELERKHVQHIRIDGSTSSAEREDLCQQFQLSERHAVAVLSITAANMGLTFSSADLVVFAELFWNPGVLIQAEDRVHRIGQTSSVGIHYLVAKGTADDYLWPLIQEKIKVLAEAGLSETNFSEMTESTDYLYKDPKQQKIYDLFQKSFEKEGSDMELLEAAESFDPGSASGTSGSSSQNMGDTLDESSLTASPQKKRRFEFFDNWDSFTSPL

- binding [4]: no binding
B3: FLAG-SMARCAL1, Q9NZC9 1-954 (enzyme)
chain: MSLPLTEEQRKKIEENRQKALARRAEKLLAEQHQRTSSGTSIAGNPFQAKQGPSQNFPRESCKPVSHGVIFKQQNLSSSSNADQRPHDSHSFQAKGIWKKPEEMPTACPGHSPRSQMALTGISPPLAQSPPEVPKQQLLSYELGQGHAQASPEIRFTPFANPTHKPLAKPKSSQETPAHSSGQPPRDAKLEAKTAKASPSGQNISYIHSSSESVTPRTEGRLQQKSGSSVQKGVNSQKGKCVRNGDRFQVLIGYNAELIAVFKTLPSKNYDPDTKTWNFSMNDYSALMKAAQSLPTVNLQPLEWAYGSSESPSTSSEGQAGLPSAPSLSFVKGRCMLISRAYFEADISYSQDLIALFKQMDSRRYDVKTRKWSFLLEEHSKLIAKVRCLPQVQLDPLPTTLTLAFASQLKKTSLSLTPDVPEADLSEVDPKLVSNLMPFQRAGVNFAIAKGGRLLLADDMGLGKTIQAICIAAFYRKEWPLLVVVPSSVRFTWEQAFLRWLPSLSPDCINVVVTGKDRLTAGLINIVSFDLLSKLEKQLKTPFKVVIIDESHFLKNSRTARCRAAMPVLKVAKRVILLSGTPAMSRPAELYTQIIAVKPTFFPQFHAFGLRYCDAKRMPWGWDYSGSSNLGELKLLLEEAVMLRRLKSDVLSQLPAKQRKIVVIAPGRINARTRAALDAAAKEMTTKDKTKQQQKDALILFFNRTAEAKIPSVIEYILDLLESGREKFLVFAHHKVVLDAITQELERKHVQHIRIDGSTSSAEREDLCQQFQLSERHAVAVLSITAANMGLTFSSADLVVFAELFWNPGVLIQAEDRVHRIGQTSSVGIHYLVAKGTADDYLWPLIQEKIKVLAEAGLSETNFSEMTESTDYLYKDPKQQKIYDLFQKSFEKEGSDMELLEAAESFDPGSASGTSGSSSQNMGDTLDESSLTASPQKKRRFEFFDNWDSFTSPL
